Data: PubChem BioAssay AID588453 (National Center for Advancing Translational Sciences (NCATS), 2011)
“And” between values parts separate entries of the source, which are not always exact repeats. Identical values can stand only once. Screen size: about 390,000 compounds; about 4,000 (1%) were called active. The inconclusive results got no clear call from the source; some entries with a clear call stand among them for comparison. Calls follow the shape of the dose curve; as a rule, active = well fitted inhibition curve with a large enough effect; inconclusive = small, poorly fitted or top-dose-only effect; inactive = no such curve, though single readings can be large or run the other way. Where the call is inconclusive, the potency comes from a doubtful curve fit.

molecular target: Thioredoxin reductase 1, cytoplasmic (Rattus norvegicus) (UniProt O89049); assay: qHTS Assay for Inhibitors of Mammalian Selenoprotein Thioredoxin Reductase 1 (TrxR1): qHTS; details: recombinant rTrxR1, NADPH fluorescence consumption, selenite substrate; series mostly up to 114 µM; activity change, negative = inhibition: at the top concentration; also: nearly all actives have a fitted effect of over 65% in size
Outline: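 Rat TrxR1 (90 nM in the dispensed reagent) was pre-reduced with 400 uM NADPH for 5 min at room temperature, then incubated with compound for 15 min. After 400 uM selenite was added, NADPH fluorescence (Ex 340/Em 450 nm) was followed for 8 min.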
% is scaled to controls: 0 for no effect and ±100 for the full control effect; potency is read from the fitted curve at half-maximal effect; tags tell the direction and shape of the fitted curve.

UniProt O89049, sequence (O89049 whole entry, looked up): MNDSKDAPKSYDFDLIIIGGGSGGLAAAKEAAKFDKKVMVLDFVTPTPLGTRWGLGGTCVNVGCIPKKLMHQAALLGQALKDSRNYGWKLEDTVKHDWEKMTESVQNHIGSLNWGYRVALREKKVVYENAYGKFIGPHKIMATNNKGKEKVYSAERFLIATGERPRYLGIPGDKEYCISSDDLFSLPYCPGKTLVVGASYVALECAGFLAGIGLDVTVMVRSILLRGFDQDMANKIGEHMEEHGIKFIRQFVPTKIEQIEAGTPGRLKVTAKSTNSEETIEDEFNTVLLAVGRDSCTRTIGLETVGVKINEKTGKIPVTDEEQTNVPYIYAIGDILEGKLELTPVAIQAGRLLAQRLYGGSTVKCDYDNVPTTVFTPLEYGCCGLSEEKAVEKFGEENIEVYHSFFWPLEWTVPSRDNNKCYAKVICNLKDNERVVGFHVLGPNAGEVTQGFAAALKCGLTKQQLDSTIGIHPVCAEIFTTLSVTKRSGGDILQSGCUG

Compound	Potency	activity change, negative = inhibition
CCc1ccc(NC(=O)CNCc2ccc(OC)c(OC)c2)cc1	inconclusive: 44.7 µM [inhibitor, partial curve]	
Cc1ccc(C)c(CN2C(=O)c3ccccc3S(=O)c3ccc(C(=O)NCc4ccco4)cc32)c1 (stereo unspecified)		inactive: 29.9%
Cc1ccc2nc3cc([N+](=O)[O-])cc([N+](=O)[O-])c3cc2c1	active: 50.1 µM	
COc1ccc(NC(=S)Nc2ccc3cn[nH]c3c2)cc1		inactive: -23.6%
Cc1ccc(S(=O)(=O)N[C@@H](Cc2ccccc2)C(=O)CCl)cc1	inconclusive: 79.4 µM [inhibitor, partial curve, poor fit] and inconclusive: 50.1 µM [inhibitor, partial curve, poor fit] and inconclusive: 21.2 µM [inhibitor, partial curve]	
COc1ccc(NC(=O)CSc2nc3c(c(-c4cccs4)c2C#N)CN(C)CC3)cc1OC	inconclusive: 28.2 µM [inhibitor, partial curve, poor fit]	
C[C@@H]1CN([C@@H](C)CO)C(=O)Cc2cc(NS(=O)(=O)c3cn(C)cn3)ccc2O[C@@H]1CN(C)C(=O)Nc1ccccc1	inconclusive: 56.2 µM [inhibitor, partial curve]	
O=C(O)CCc1ccc(-c2ccccc2)n1-c1cccc(Br)c1	inconclusive: 56.2 µM [inhibitor, partial curve, poor fit]	
O=C1c2ccccc2COc2ccc(O)cc21	inconclusive: 39.8 µM [inhibitor, partial curve]	
O=C(/C=C/NNC(=O)c1ccc(Cl)cc1)c1ccccc1	inconclusive: 20 µM [inhibitor, full curve, poor fit]	
N#CC1=C(N)OC2=C(CN(Cc3ccccc3)C/C2=C\c2cccnc2)C1c1cccnc1 (stereo unspecified)	inconclusive: 39.8 µM [inhibitor, partial curve]	
CCN1CCN(C(c2cccc(OC)c2OC)c2nnnn2Cc2ccco2)CC1 (stereo unspecified)		inactive: 14.7% [at 57.1 µM]
CC(/C=C/c1ccc(C)o1)=C\C(=O)O	inconclusive: 14.1 µM [inhibitor, full curve]	
COc1ccc(/C(C)=N/NC(=O)CNC(=O)c2ccncc2)c(OC)c1	inconclusive: 70.8 µM [inhibitor, partial curve, poor fit]	
C=CCOC(=O)C(=O)/C=C/c1coc2ccccc2c1=O		inactive: 15.6%
N#C/C(=C/c1ccc(N2CCOCC2)o1)C(=O)N1CCOCC1	active: 50.1 µM	
O=C(C#Cc1ccccc1)c1ccco1	active: 0.251 µM	
Cc1ccc(OCc2cc(C(=O)N3CCc4[nH]cnc4C3c3ccccn3)no2)cc1C (stereo unspecified)	inconclusive: 44.7 µM [inhibitor, partial curve, poor fit]	
Cc1ccccc1CNC(=O)C1CCCN(c2nnc(-n3c(C)ccc3C)s2)C1 (stereo unspecified)	inconclusive: 15.8 µM [inhibitor, full curve]	
COc1ccc(NS(=O)(=O)c2cc(NC(=O)C3=NN(c4ccccc4)C(=O)CC3)ccc2OC)cc1	inconclusive: 89.1 µM [inhibitor, single point]	
COc1ccc(OCC(=O)N2c3ccc(C)cc3C3CN(C)CCC32)cc1 (stereo unspecified)		inactive: -0.285% [at 57.1 µM]
O=C(O)c1ccccc1SC1CC(=O)N(C2CCCCC2)C1=O (stereo unspecified)	active: 79.4 µM	

Compound	Potency	activity change, negative = inhibition
COC(=O)[C@@H]1Cc2c([nH]c3ccccc23)C(C)(C)N1C(=O)CCl	inconclusive: 50.1 µM [inhibitor, partial curve]	
CC1(C)CC(=O)C=C(NNC(=O)c2ccc(N)cc2)C1	inconclusive: 89.1 µM [inhibitor, partial curve, poor fit]	
COc1ccc(OCCC(=O)Nc2cc(C)on2)cc1		inactive: 11.6% [at 57.1 µM]
COC(=O)c1ccc(C2C3=C(Nc4nnnn42)c2ccccc2OC3)cc1 (stereo unspecified)	inconclusive: 50.1 µM [inhibitor, partial curve, poor fit]	
Cc1nn(C)cc1NC(=O)c1cc2nc(-c3ccco3)cc(C(F)(F)F)n2n1	inconclusive: 8.91 µM [inhibitor, partial curve]	
c1ccc2sc(SN3CCOCC3)nc2c1	inconclusive: 12.6 µM [inhibitor, partial curve, poor fit]	
CCOC(=O)C1=CN(Cc2ccco2)S(=O)(=O)NC1c1cccc(OC)c1 (stereo unspecified)	inconclusive: 8.91 µM [inhibitor, partial curve, poor fit]	
O=C(N/N=C\c1ccc(O)c([N+](=O)[O-])c1)c1ccccc1-n1cccc1	inconclusive: 56.2 µM [inhibitor, partial curve, poor fit]	
Cc1cc(C#Cc2c(-c3ccccc3)n(C)c3ccccc23)ccc1F	active: 35.5 µM	
CCN(C(=O)CSc1nc(-c2ccccc2)no1)c1cccc(C)c1		inactive: 1.11%
O=C1N/C(=N/NC(=O)c2cccc3ccccc23)S/C1=C\c1ccccc1OCc1ccccc1	inconclusive: 44.7 µM [inhibitor, partial curve, poor fit]	
Cc1ccc(N2CSC3=C(C#N)C(c4cccs4)CC(=O)N3C2)cc1 (stereo unspecified)	inconclusive: 22.4 µM [inhibitor, single point]	
Cn1c(SCc2cccc3ccccc23)nnc1-c1ccco1	inconclusive: 14.1 µM [inhibitor, full curve, poor fit]	
CCc1nc(N)nc(N)c1-c1ccc(Cl)c(N=[N+]=[N-])c1	inactive	
CC(C)NS(=O)(=O)c1cc(C(F)(F)F)ccc1/C=C/C(=O)O	inconclusive: 89.1 µM [inhibitor, single point]	
CN(CCNC(=O)CCNC(=O)Cn1ccc2ccccc2c1=O)Cc1ccccc1	inconclusive: 79.4 µM [inhibitor, partial curve, poor fit]	
COc1ccc2c(c1)C=C/C2=C\c1ccc(N(C)C)cc1		inactive: -15.4%
Cc1ccc2oc(-c3cc(NC(=O)Cc4ccccc4)ccc3Cl)nc2c1	inconclusive: 35.5 µM [inhibitor, partial curve, poor fit]	
CC(C)NCC(O)COc1ccc(CCOCC2CC2)cc1 (stereo unspecified)	inconclusive: 0.126 µM [inhibitor, full curve, poor fit]	
CCn1c(C)cc(/C=C2\NC(=O)N(Cc3ccc(Cl)cc3)C2=O)c1C	inconclusive: 10 µM [inhibitor, full curve, poor fit]	
CC[C@@]1(c2cccc(C)c2)C(=O)N(C(=O)OC)N1C(=O)OC	active: 2 µM	
Cc1cccc(NC(=S)NNC(=O)c2csc3c2CCC(C)C3)c1 (stereo unspecified)	inconclusive: 2.24 µM [inhibitor, partial curve, poor fit]	

Compound	Potency	activity change, negative = inhibition
Cc1cccc(NC(=O)CN2C(=O)S/C(=C\c3cc(C)n(C)c3C)C2=O)c1	inconclusive: 28.2 µM [inhibitor, full curve, poor fit]	
Cc1c(C(=O)N(Cc2ccco2)Cc2cccs2)oc2ccccc12	inconclusive: 25.1 µM [inhibitor, full curve]	
CC(=O)c1c(C)n([O-])c2cc(F)c(F)cc2[n+]1=O	inconclusive: 63.1 µM [inhibitor, single point]	
O=C(CCNc1ccc(F)cc1)c1ccco1	active: 11.2 µM	
COc1cc(/C=N\N=C2/SC(CC(=O)O)C(=O)N2c2ccc(O)cc2)ccc1O (stereo unspecified)	inconclusive: 22.4 µM [inhibitor, single point]	
C1=Cc2ccccc2/C1=C\c1cc[cH-]c1.[Fe+2].c1cc[cH-]c1	active: 3.16 µM	
Cc1ccc2c(c1)C(=C(C#N)C#N)CCN2	inconclusive: 79.4 µM [inhibitor, partial curve, poor fit]	
Cc1nnnn1/C(=C\c1ccccc1)C(=O)OCC(=O)NC1CCCCC1	inconclusive: 50.1 µM [inhibitor, partial curve, poor fit]	
Cc1ccc(C(CC(=O)N2CCOCC2)c2ccco2)cc1 (stereo unspecified)	active: 44.7 µM	
O=C(NCc1ccc(F)cc1)c1c2c(nc3ccccc13)CCC2		inactive: 4.47% [at 57.1 µM]
CC(/C=N/n1c(-c2ccc(C)cc2)n[nH]c1=S)=C\c1ccco1	inconclusive: 50.1 µM [inhibitor, partial curve]	
CC(C)CN(CCCNC(=O)CN1C(=O)COc2ccc(S(=O)(=O)N3CCCC3)cc21)CC(C)C		inactive: -7.6%
Cc1ccc(CN(C(=O)COc2cccc(Cl)c2)c2ccccn2)o1	inconclusive: 44.7 µM [inhibitor, partial curve]	
Cc1cccc(S(=O)Cc2ccc(C(=O)N3CCN(C(=O)c4ccco4)CC3)o2)c1 (stereo unspecified)	inconclusive: 79.4 µM [inhibitor, partial curve, poor fit]	
CC12CCC(=O)C=C1C(O)CC1C2CCC2(C)C1CCC2(O)C(=O)CO (stereo unspecified)		inactive: 8.56%
CCc1ccc(NC(=O)COC(=O)c2ccccc2OCC(=O)N(C)C)cc1		inactive: 15.3%
CC1(C)CC(=O)C2=C(C1)NC1=C(C(=O)c3ccccc31)C2c1cccnc1 (stereo unspecified)		inactive: -13.6%
N#CC1=C(S)N(c2ccccc2)C(c2ccc(-c3cc(Cl)ccc3Cl)o2)NC1=O (stereo unspecified)	inconclusive: 22.4 µM [inhibitor, single point]	
COc1[nH]c(/N=C/c2ccco2)c(C#N)c1C#N	inconclusive: 20 µM [inhibitor, full curve]	
Cc1ccc(-c2cc(C(=O)O)c3cc(Br)ccc3n2)o1	inconclusive: 3.55 µM [inhibitor, full curve, poor fit]	
CCOc1ccc(NC(=O)c2sc3nc4n(c(=O)c3c2C)CCCC4)cc1	inconclusive: 56.2 µM [inhibitor, partial curve, poor fit]	
CC(=O)CCc1oc2c([N+](=O)[O-])cccc2c1-c1ccc(C)o1	inconclusive: 79.4 µM [inhibitor, single point]	
